The whole screen tested about 190,000 compounds, of which about 360 (0.19%) were called active. This list was built around the results that the source calls inconclusive (neither active nor inactive); the mix of calls is not that of the screen.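 The calls were made as follows: active = GTP binding activity at least 20 points away from 100%, either lowered or raised; inconclusive = signal likely due to the compound's own green fluorescence; inactive = the rest.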
target: Ras-related protein Rab-2A (Canis lupus familiaris) (UniProt P61105); assay: Rab2 wt fluorescent GTP binding changes, either direction – biochemical, dog, bead-based flow cytometry, multiplex, primary screen (AID 760); details: GST-Rab2 wt beads, Bodipy-GTP binding, at 10 µM;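 also: 0% = beads with excess unlabeled GTP and 100% = no-compound control corrected for plate trend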

Row | SMILES | GTP binding activity
1 | Clc1ccc(-c2noc(CN3CCCC3)n2)cc1 | inconclusive: 105%
2 | Cc1ccc(Cl)cc1N1CCN(Cc2nnnn2Cc2ccco2)CC1 | inconclusive: 100%
3 | COc1ccc(C(=O)OCC(=O)NC(=O)NC2CCCC2)c(OC)c1 | inactive: 97%
4 | COCCNC(=O)c1cc2c(-c3ccc(Cl)cc3)nn(C)c2s1 | inconclusive: 93%
5 | O=C(COC(=O)c1cncc(Br)c1)Nc1ccc2c(c1)OCO2 | inconclusive: 92%
6 | C/C(=N\NC(=O)c1ccc(Cl)c(S(=O)(=O)Nc2ccccc2Cl)c1)c1ccncc1 | inactive: 86%
7 | COC(=O)CCC/C=C1\SC[C@@H](NC(=O)c2ccccc2)C1NC(C)=O (stereo partly specified) | inactive: 96%
8 | CC(=O)OC(C(=O)n1nc(C)cc1C)c1ccccc1 (stereo unspecified) | inconclusive: 93%
9 | CS(=O)(=O)Nc1ccccc1C(=O)O | inactive: 99%
10 | O=C(Nc1nnc(-c2cccs2)o1)c1cc(-c2ccccc2)nc2ccccc12 | inactive: 95%
11 | FC(F)(F)c1ccc(Cl)c(NC(=S)N/N=C/c2ccccc2C(F)(F)F)c1 | inconclusive: 93%
12 | COc1ccc(NC(=O)Cn2cnc3c(nnn3-c3ccc(C)cc3)c2=O)cc1 | inactive: 101%
13 | O=C(O)CC(NC(=O)C1c2ccccc2Oc2ccccc21)c1ccc(Cl)cc1 (stereo unspecified) | inactive: 95%
14 | c1ccc(-c2cnc(-c3cccnc3)o2)cc1 | inconclusive: 91%
15 | CCOc1ccc(N(CC(=O)Nc2ccc(OC)cc2)S(=O)(=O)c2c(C)noc2C)cc1 | inconclusive: 101%
16 | Cc1ccccc1C(=O)N1CCN=C1SCc1ccc([N+](=O)[O-])cc1 | inactive: 96%
17 | CCOc1ccc(NC(=O)COc2nsnc2N2CCCCC2)cc1 | inconclusive: 103%
18 | COc1cccc(N=c2oc3ccc(OC)cc3cc2-c2nc3ccccc3[nH]2)c1 | inconclusive: 89%
19 | CCOC(=O)CCCCC(=O)c1[nH]c(=O)[nH]c1CSc1nnc2c3cc(Br)ccc3n(C)c2n1 | inconclusive: 80%
20 | CC1CCCC(C)N1C(=O)Cn1c(SCC(=O)NCc2ccc3c(c2)OCO3)nc2ccccc21 (stereo unspecified) | inconclusive: 104%
21 | O=C(CSc1nncs1)NCCCc1ccccc1 | inactive: 93%
22 | O=C(CCNC(=O)c1ccccc1)Oc1ccc([N+](=O)[O-])cc1 | inconclusive: 93%
23 | C=CCN1C(=O)/C(=C/C=C2/N(CC)c3ccc(S(=O)(=O)N(C)C)cc3N2CC)SC1=S | inactive: 86%

Row | SMILES | GTP binding activity
24 | CCCOc1ccc(Oc2cc(C)nc(SC)n2)nn1 | inconclusive: 105%
25 | CCN(CC)c1ccc(/C=C(/C#N)c2nc3ccc(C)cc3[nH]2)c(OC(C)C)c1 | inconclusive: 126%
26 | CCOc1ccccc1N1CCN(C(=O)COc2ccc3c(C)cc(=O)oc3c2)CC1 | inactive: 98%
27 | COc1ccccc1-c1nnc(SCC(=O)Nc2nc(-c3ccccc3)cs2)n1C | inconclusive: 92%
28 | CCc1ccc(NC(=O)N(CCOC)C2CCN(C(C)=O)CC2)cc1 | inactive: 95%
29 | O=C(NCC(=O)N1CCN(S(=O)(=O)/C=C/c2ccccc2)CC1)c1ccccc1F | inactive: 97%
30 | Brc1cc(Br)c2nc(-c3ccc(N4CCOCC4)cc3)ccc2c1 | inconclusive: 84%
31 | Cc1cc([N+](=O)[O-])nn1Cc1ccc(C(=O)N/N=C/c2ccc(O)cc2O)cc1 | inactive: 91%
32 | O=C(NC(Cc1ccccc1)C(=O)O)/C(=C/c1ccco1)NC(=O)c1cccc(Br)c1 (stereo unspecified) | inconclusive: 92%
33 | Cc1ccc(C(=O)Nc2oc(-c3ccccc3)cc2C#N)cc1 | inconclusive: 88%
34 | CCOC(=O)c1ccc(NC=C2C(=O)OC3(CCCCC3)OC2=O)cc1 | inconclusive: 104%
35 | CCN(CC)S(=O)(=O)c1ccc(OC)c(NC(=O)c2cc(C)on2)c1 | inconclusive: 97%
36 | O=C(N/N=C/c1ccc(Cl)c([N+](=O)[O-])c1)c1cnccn1 | inconclusive: 100%
37 | COC(=O)c1cc(NC(=O)C2CC(=O)NC(=NCc3ccc(OC)cc3)S2)cc(C(=O)OC)c1 (stereo unspecified) | inconclusive: 93%
38 | COCCn1c(SCC(=O)NCC2CCCO2)nc2c(c1=O)SC(C)C2 (stereo unspecified) | inactive: 100%
39 | O=c1c2ccccc2nc2ccc(NCc3cccs3)nn12 | active: 74%
40 | COc1cccc(-c2csc3nnc(SCC(=O)c4ccc(NC(C)=O)cc4)n23)c1 | inconclusive: 104%
41 | Cc1ccc(-c2n[nH]c(=S)c3ccccc23)cc1 | inconclusive: 91%
42 | Cc1[nH]c2ccccc2c1/C=C(\C#N)C(=O)NC(C)c1ccccc1 (stereo unspecified) | inconclusive: 91%
43 | COc1ccc(-c2cc(=O)c3cc(OC)ccc3[nH]2)cc1 | inconclusive: 138%
44 | Cc1ccc(CN2CCN(/N=C/c3cc(Br)cc(Br)c3O)CC2)c(C)c1 | inconclusive: 97%
45 | O=C(NC1CCCC1)C(c1ccncc1)N(Cc1ccccc1)C(=O)Cc1cccs1 (stereo unspecified) | inconclusive: 104%
46 | Cc1ccc(OC(=O)c2cc3ccccc3o2)cc1 | inconclusive: 102%

Row | SMILES | GTP binding activity
47 | O=C(CCNC(=O)c1ccccc1Cl)Nc1ccc(Cl)c(C(F)(F)F)c1 | inactive: 99%
48 | Cn1ncc(C#N)c1/N=C/N(Cc1ccccc1)Cc1ccccc1 | inconclusive: 103%
49 | O=C(Nc1ccccc1-c1ccccc1)NC1CC2CCCC(C1)N2Cc1ccc(F)cc1 (stereo unspecified) | inconclusive: 96%
50 | Cc1ccc(C(=O)NN2C(=O)/C(=C/c3cccn3C)SC2=S)cc1 | inconclusive: 83%
51 | CCc1cc(C(=O)N2CCCC(CNS(=O)(=O)c3cccs3)C2)n(C)n1 (stereo unspecified) | inactive: 95%
52 | Brc1ccccc1-c1nnc(SCc2nc3ccccc3s2)o1 | inconclusive: 91%
53 | CC(C)C[C@H](NC(=O)Nc1ccc(S(N)(=O)=O)cc1)C(=O)O | inconclusive: 104%
54 | Cc1cccc(-n2c(N)c(C(=O)N3CCN(C)CC3)sc2=S)c1 | inconclusive: 92%
55 | S=C(Nc1cccc(Cl)c1)N(CCCN1CCCC1)Cc1cccn1Cc1ccc(Cl)cc1 | inconclusive: 104%
56 | COc1cccc(N(CC(=O)N/N=C(\C)c2cccs2)S(C)(=O)=O)c1 | inactive: 100%
57 | CC(C)CCNC(=O)CCCCn1c(=O)[nH]c2ccsc2c1=O | inactive: 96%
58 | CCOC(=O)C1(Cc2ccc(OC)cc2)CCN(C(=O)c2cncs2)CC1 | inactive: 99%
59 | CC(=O)Nc1ccc(NC(=O)CSc2nnc3ccc(-c4ccc(F)cc4)nn23)cc1 | inactive: 99%
60 | O=C(Nc1nc(-c2ccc(S(=O)(=O)N3CCCCCC3)cc2)cs1)c1cccs1 | inconclusive: 76%
61 | O=C(CCCSc1nc(-c2ccco2)cc(C(F)(F)F)n1)NCc1cccs1 | inconclusive: 92%
62 | CSc1nc(Cc2ccccc2)cc(=O)[nH]1 | active: 120% [activator]
63 | CCC1CCCCN1S(=O)(=O)c1ccc(NC(=O)CSc2ncccc2C(=O)O)cc1 (stereo unspecified) | inconclusive: 70%
64 | COc1ccccc1C1/C(=C(/O)c2ccccc2)C(=O)C(=O)N1CCO (stereo unspecified) | inconclusive: 106%
65 | Cc1ccccc1NC(=O)Nc1nnc(Cc2ccc([N+](=O)[O-])cc2)s1 | inactive: 98%
66 | O=C(Nc1ccc(N2CCCC2)c(Cl)c1)c1cccs1 | inconclusive: 95%
67 | CC(=O)Nc1cccc(C(=O)/C=C/c2ccco2)c1 | inconclusive: 106%
68 | O=C(Nc1ccc2c3c(cccc13)CC2)c1ccco1 | inconclusive: 102%
69 | Cc1ccccc1Cn1cnc2c([N+](=O)[O-])c(C)c(C)cc21 | inconclusive: 94%

Row | SMILES | GTP binding activity
70 | C=CCN(C(=O)C1=NN(C2CCS(=O)(=O)C2)C(=O)CC1)c1nc(-c2ccc([N+](=O)[O-])cc2)cs1 (stereo unspecified) | inactive: 93%
71 | N#CCCn1cc(C(=O)N2CCOCC2)c(-c2ccc3c(c2)OCCO3)n1 | inactive: 100%
72 | C=CCSc1nc2sc(C)c(C)c2c(=O)n1N | inactive: 99%
73 | O=C(NC1CC1)c1cc(F)c(F)cc1Cl | inconclusive: 95%
74 | COc1cccc(/C=N/NC(=O)COc2cccc3cccnc23)c1O | inconclusive: 95%
75 | COc1ccc(CN(C(=O)c2cccs2)c2ccccc2)cc1 | inconclusive: 91%
76 | COC(=O)CN1C(=O)S/C(=C/c2ccc(N3CCCCC3)o2)C1=O | inconclusive: 116%
77 | COc1ccc(C2N(c3ccccc3)CCN2c2ccccc2)cc1O | inactive: 100%
78 | NC(=O)c1ccc2nc(NC(=O)c3ccc(N)cc3)sc2c1 | inconclusive: 91%
79 | CCNC(=O)COc1ccc(Br)cc1Cl | inconclusive: 103%
80 | COc1ccc(CCn2c(C)cc(C(=O)CSc3nnnn3-c3ccccc3)c2C)cc1 | inconclusive: 107%
81 | O=C(NCCNc1ccc([N+](=O)[O-])cc1C(F)(F)F)c1ccc(F)cc1 | inconclusive: 100%
82 | COc1ccc(F)cc1C(=O)C1CCCN(Cc2ccc(Oc3ncccn3)cc2)C1 (stereo unspecified) | inconclusive: 95%
83 | Cc1cc(-n2c(=O)c(C#N)cc3c(=O)n4cccc(C)c4nc32)no1 | inconclusive: 102%
84 | CCOc1ccccc1Nc1ccc(C(=O)O)cc1[N+](=O)[O-] | inactive: 99%
85 | O=C(NCc1ccccc1)c1ccccc1C(=O)c1ncc[nH]1 | inactive: 96%
86 | CC(=O)N1CCN(c2ccc(NC(=O)c3ccc(C)cc3)cc2)CC1 | inconclusive: 104%
87 | Cc1ccc(Nc2nnc(SCC(=O)NCCN3C(=O)CSC3=O)s2)cc1C | inactive: 93%
88 | CC(=O)Nc1ccc(OCc2nnc(-c3ccc(Cl)cc3)o2)cc1 | inconclusive: 91%
89 | COc1cc(/C=N/NC(=O)Nc2cccc3nsnc23)cc(OC)c1OC | active: 59%
90 | O=C(Nc1cc(C(F)(F)F)ccc1N1CCCCC1)c1cccc([N+](=O)[O-])c1 | inconclusive: 93%
91 | O=C(/C=C/c1ccc(-c2ccccc2)o1)c1ccccc1 | inconclusive: 94%
